Assay results reported in the supplement of paper PMC11417369.
± gives the standard deviation of the averaged measurements. This is one part of the list.

What follows are sequences tested on PfAP2-G AP2 domain (GST-tagged) (assay: gcPBM binding intensity (ln(normalized median fluorescence intensity)); higher = stronger DNA binding).
Outline: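 GST-fused DNA-binding domains of P. falciparum, expressed in E. coli, were applied at about 25 μg on average for 1 h to an Agilent 4 × 180k array of primer-extended double-stranded 36-bp intergenic genomic probes and negative controls. Binding intensity is the highest Masliner-normalised natural-log median intensity across replicate spots of either probe orientation, measured with Alexa488 anti-GST antibody and a 488 nm scan.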

Row | Sequence | gcPBM binding intensity (ln)
1 | ATATATCTACATATATGTACATATATGTATATGTAT [XGTACX_site5432] | 11 ± 0.46
2 | ATATCCTACTTCTAGTGTACATATATGGACTGATGA [XGTACX_site3683] | 11.4 ± 0.79
3 | AATAAAATAATAGGCACACATATATATATATATTAT [CACACA_site273] | 10.1 ± 0.26
4 | TATATATATATATGTGCACACATAAAGATATTATTT [CACACA_site3734] | 10.4 ± 0.26
5 | AAAAAAAAAAAACACACACACACACTAGTACATACA [CACACA_site4551] | 11.3 ± 0.72
6 | TACAATTTATGACACACACACAATAATACCTATATA [CACACA_site6704] | 10.4 ± 0.33
7 | AAATATATATACCACACACACATACCTCTATTTGTA [CACACA_site1854] | 10.195 ± 0.007
8 | TATAGTAAAATTAGGGTGCTTTTGTAACAAAAAAAA | 10.1 ± 0.3
9 | TTATTTTCTTTCTATGCACACGCACGTATTTGCCCA [CACACA_site9104] | 11 ± 0.76
10 | TGCTTCATAAATAAAACATGCAATATAGAAATTAAA [TGCATGCA_site690] | 9.885 ± 0.064
11 | TTTATATAGAAAAATTGTACGAATTACTTTTTTATA [XGTACX_site6843] | 10.7 ± 0.46
12 | TATAGCATATTTCACACACACATAATGAATATTATA [CACACA_site3545] | 9.82 ± 0.13
13 | AATAAAAAAATAAAAAAAAAAAAAAATAAAAAAAAA [GTGCAC_negctrl_site12] | 9.55 ± 0.099
14 | CGTATTTTAATATTTACACACTTATTTTTTATATAA [CACACA_site125] | 10.115 ± 0.007
15 | TTTTGTAAAAGGTATATATATATATATATATATATA [GTGCAC_negctrl_site734] | 9.91 ± 0.59
16 | TTTAACGTTGAATATACACACATATATTTATTTATA [CACACA_site7695] | 9.79 ± 0.014
17 | AAAATGTACTTTTTCTAAAGAGTAATGATGCTTGAT [CACACA_negctrl_site1124] | 11.6 ± 1
18 | AATCCTTTAAAACACACACACAAAAAAAAAAAAAAA [CACACA_site642] | 9.87 ± 0.31
19 | AAATGGACCTAATTATCACACATTATACTCGTTTTC [CACACA_site5996] | 10.6 ± 0.43
20 | TACAAAAAAAGATGATGTACAATGAAAAATAAGAAA [XGTACX_site5840] | 11 ± 0.39
21 | AAAAAAAAAAAAAACACACACACAAATACAAATACA [CACACA_site414] | 10.1 ± 0.35
22 | ATAAATAATTGTAGTTGTACATGATATTTTTATTAC [XGTACX_site550] | 11.1 ± 0.63
23 | AAAATAAATAAATATACACACCATATATATATTTTT [CACACA_site5573] | 9.63 ± 0.099
24 | ATATATCATAATAAAAGTACTTATATATTTTATATA [XGTACX_site560] | 11.2 ± 0.84
25 | TTATTATTCCCTCATTTTGTTACCATTATTTCAATT [CACACA_negctrl_site1023] | 10.35 ± 0.021
